{"source": "PubChem BioAssay AID1671194", "about": "(National Center for Advancing Translational Sciences (NCATS), 2021)", "note": "Screen size: about 140,000 compounds; about 240 (0.17%) were called active. The shares of active, inactive and inconclusive entries below differ from those in the screen. Calls follow the shape of the dose curve; as a rule, active = well fitted inhibition curve with a large enough effect; inconclusive = small, poorly fitted or top-dose-only effect; inactive = no such curve, though single readings can be large or run the other way. Potencies beside an inconclusive call are fits to weak or partial responses and may not hold up. Potency is read from the fitted curve at half-maximal effect; tags tell the direction and shape of the fitted curve."}
{"experiment": "Primary qHTS assay for inhibitors of alpha-synuclein gene (SNCA) expression; also: nearly all actives have a fitted effect of over 45% in size;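 as to activity change, negative = inhibition: plate controls were DMSO cells for no effect and cell-free wells for full effect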", "settings": "HEK-293 SNCA-luciferase knock-in, luminescence, 24 h; activity change, negative = inhibition: at 57.2 µM (top of the series) unless noted"}
{"smiles": "CCOC(=O)C1CCCN(C(=O)c2cc(C(C)(C)C)nc3c2cnn3C)C1", "note": "(stereo not given)", "activity change, negative = inhibition": "inactive: 0.66%"}
{"smiles": "Cc1ccc(CCN2CCCCC23Cc2ccccc2CN([S+](C)(=O)[O-])C3)cc1", "note": "(stereo not given)", "activity change, negative = inhibition": "inactive: -29.8%"}
{"smiles": "CCOC(=O)c1ccccc1NC(=O)CN1C(=O)NC2(CCCCC2)C1=O", "Potency": "inconclusive: 39.8 µM [inhibitor, single point]"}
{"smiles": "COc1cccc(CN2CCC(F)(C(=O)N3CCCC3)CC2)c1OC", "activity change, negative = inhibition": "inactive: 11.7%"}
{"smiles": "Cc1ccc([S+](=O)([O-])N2CCCC2C(=O)N2CCC(N3Cc4cccn4C3=O)CC2)cc1", "note": "(stereo not given)", "activity change, negative = inhibition": "inactive: -5.46%"}
{"smiles": "CN(Cc1ccccc1)C(=O)CC1CCNC1", "note": "(stereo not given)", "Potency": "inconclusive: 31.6 µM [inhibitor, single point]"}
{"smiles": "O=C(c1nc2cccnc2n(CCc2ccccc2)c1=O)N1CCN([S+](=O)([O-])c2cccc(C(F)(F)F)c2)CC1", "Potency": "inconclusive: 7.08 µM [inhibitor, single point]"}
{"smiles": "O=C1c2c(nc(CN3CCC(F)(F)CC3)n2Cc2ccccc2)NCCN1Cc1cccc(Cl)c1", "Potency": "inconclusive: 3.55 µM [inhibitor, full curve, poor fit]"}
{"smiles": "CCCCOC(=O)c1cccc(NC(=O)/C=C/c2ccccc2Cl)c1", "Potency": "inconclusive: 11.2 µM [inhibitor, partial curve, poor fit]"}
{"smiles": "CC(=O)N1CCC(n2c(C)cnc2-c2ccccc2)CC1", "activity change, negative = inhibition": "inactive: 25.2%"}
{"smiles": "Cc1ccc(S(=O)(=O)/C=C/C#N)cc1", "Potency": "inconclusive: 39.8 µM [inhibitor, single point]"}
{"smiles": "CCn1nc(C)c(-c2cc(C(=O)NCCc3noc(COC)n3)no2)c1C", "Potency": "inconclusive: 8.91 µM [inhibitor, single point]"}
{"smiles": "O=S(=O)(c1ccc(-n2cnnn2)cc1)N1CCN(c2cccc(C(F)(F)F)c2)CC1", "Potency": "inconclusive: 39.8 µM [inhibitor, single point]"}
{"smiles": "COc1ccc(CN2CCC3(C2)C(=NC2CCCCC2)NC(=O)N3c2cccc(OC)c2)cc1", "note": "(stereo not given)", "Potency": "inconclusive: 3.16 µM [inhibitor, full curve, poor fit]"}
{"smiles": "Clc1ccc(-c2cnc3n2C[C@H](CNCc2ccc4c(c2)OCO4)OC3)cc1", "activity change, negative = inhibition": "inactive: -15.9% [at 87.6 µM]"}
{"smiles": "Cc1cccc(Nc2ncncc2-c2nc(-c3ccccc3)no2)c1C", "activity change, negative = inhibition": "inactive: -30%"}
{"smiles": "Cc1cccc(NC(=O)c2ccc(CNS(=O)(=O)c3ccc4c(c3)C(C)(C)C(=O)N4C)cc2)c1", "Potency": "inconclusive: 39.8 µM [inhibitor, single point]"}
{"smiles": "Cc1nnc([C@H]2CCN(Cc3ccco3)C2)o1", "activity change, negative = inhibition": "inactive: -14.3% [at 87.6 µM]"}
{"smiles": "O=C(O)Cn1nc(C2CCCC2)nc1-c1cccc(Cn2cccn2)c1", "Potency": "inconclusive: 2.24 µM [inhibitor, single point]"}
{"smiles": "O=C(CCc1nc2ccccc2s1)NCCc1noc(-c2ccncc2)n1", "Potency": "inconclusive: 39.8 µM [inhibitor, single point]"}
{"smiles": "CC(C)N1C[C@H](O)C[C@H]1c1nnc2n1CCN(C(=O)c1cccs1)C2", "Potency": "inconclusive: 39.8 µM [inhibitor, single point]"}
{"smiles": "COc1ccc(-c2ccnc(N[C@H]3CO[C@H]4[C@@H]3OC[C@H]4OC(=O)Nc3cccc(OC)c3)n2)cc1", "Potency": "inconclusive: 25.1 µM [inhibitor, single point]"}
{"smiles": "Cc1ccc(C(=O)N2CCC(c3nn(-c4ccc(Cl)cc4)c(=O)[nH]3)CC2)cc1", "Potency": "inconclusive: 11.2 µM [inhibitor, partial curve, poor fit]"}
{"smiles": "CCC1=C(c2ccc(C)cc2)S(=O)(=O)N=C1N1CCC(C(=O)NCCc2ccc(Cl)cc2)CC1", "Potency": "inconclusive: 0.178 µM [inhibitor, partial curve, poor fit]"}
{"smiles": "Cc1ccc(CCNC(=O)c2c[nH]c3ccc(S(=O)(=O)Nc4cccc(C(F)(F)F)c4)cc3c2=O)cc1", "Potency": "inconclusive: 7.08 µM [inhibitor, single point]"}
{"smiles": "CN(Cc1cc(C(C)(C)C)n[nH]1)C(=O)[C@H]1CCC[C@@H](O)C1", "Potency": "inconclusive: 28.2 µM [inhibitor, single point]"}
{"smiles": "Cc1ccccc1C(=O)N(C)C1CCCc2ccccc21", "note": "(stereo not given)", "activity change, negative = inhibition": "inactive: -3.85% [at 87.6 µM]"}
{"smiles": "CC(=O)N1CCN(C(=O)c2nc3sccn3c2-c2ccncc2)CC1", "activity change, negative = inhibition": "inactive: 14.7% [at 87.6 µM]"}
{"smiles": "CCOC(=O)N1CCc2c(sc(NCc3cccs3)c2C(=O)Nc2ccc(OC)cc2OC)C1", "Potency": "inconclusive: 2.24 µM [inhibitor, full curve, poor fit]"}
{"smiles": "Cc1ccc(C)c(C(=O)NCc2nnc3cc(-c4nc(C)no4)ccn23)c1", "activity change, negative = inhibition": "inactive: -3.66%"}
{"smiles": "Cc1ccc(CNC(=O)C2(c3ccc(NS(C)(=O)=O)cc3)CCCCC2)o1", "Potency": "inconclusive: 39.8 µM [inhibitor, single point]"}
{"smiles": "COCCN1CCCC2(CCN(C(=O)COc3cccc(C)c3C)C2)C1=O", "note": "(stereo not given)", "Potency": "inconclusive: 8.91 µM [inhibitor, single point]"}
{"smiles": "Cc1cc(C)cc(NC(=O)C2CC(=O)N(c3ccccc3)C2)c1", "note": "(stereo not given)", "Potency": "inconclusive: 39.8 µM [inhibitor, single point]"}
{"smiles": "COc1ccc2cc3[n+](cc2c1OC)CCc1cc2c(cc1-3)OCO2", "Potency": "inconclusive: 24.1 µM [inhibitor, single point]"}
{"smiles": "Cc1cccc(-c2nc(CN3CCCC(C(=O)NCCc4ccc(Cl)cc4)C3)c(C)o2)c1", "note": "(stereo not given)", "Potency": "inconclusive: 39.8 µM [inhibitor, single point]"}
{"smiles": "N#Cc1cccc(NC(=O)N2CCC[C@@H](O)[C@H](NC(=O)c3ccc(OCc4ccc(F)cc4)cc3)C2)c1", "Potency": "inconclusive: 28.2 µM [inhibitor, single point]"}
{"smiles": "C1CCC(c2nc(CCOCC3CCCC3)no2)NC1", "note": "(stereo not given)", "activity change, negative = inhibition": "inactive: -10%"}
{"smiles": "Cc1ccccc1NC(=O)c1sc2nc3c(cc2c1N)CN(Cc1ccccc1)CC3", "Potency": "inconclusive: 10 µM [inhibitor, partial curve, poor fit]"}
{"smiles": "COc1cc2c(cc1OC)C(C[C@H]1CN(C(=O)N3CCOCC3)CC[C@H]1CC(=O)O)=NCC2", "activity change, negative = inhibition": "inactive: -10.4%"}
{"smiles": "COc1ccccc1C(=O)N1CCCCCC1CN1CCc2ccccc2C1", "note": "(stereo not given)", "Potency": "inconclusive: 25.1 µM [inhibitor, single point]"}
{"smiles": "Cc1ccc(-c2cccc(CN3CCCC(c4nc5ccc(C)cc5c(=O)[nH]4)C3)c2)c(C)c1", "note": "(stereo not given)", "Potency": "inactive"}
{"smiles": "Cn1ccc(Nc2nccc3c(=O)cc(-c4cn[nH]c4)oc23)n1", "Potency": "inconclusive: 2.51 µM [inhibitor, full curve, poor fit]"}
{"smiles": "CC(C)NC(=O)CN1C(=O)CCn2nc(-c3cn(C)c4ccccc34)cc21", "Potency": "inconclusive: 17.8 µM [inhibitor, partial curve, poor fit]"}
{"smiles": "CC[C@@H]1Cc2cc(O)ccc2C2=C1c1ccc(O)cc1C[C@H]2CC", "Potency": "inconclusive: 7.94 µM [inhibitor, full curve, poor fit]"}
{"smiles": "CC(C)(C)OC(=O)N1CC(Nc2ccc(O)cc2)C1", "Potency": "inconclusive: 56.2 µM [inhibitor, partial curve, poor fit]"}
{"smiles": "COc1cccc(CNC(=O)CN2CCCc3nc(C)ncc3C2=O)c1", "Potency": "inconclusive: 17.8 µM [inhibitor, single point]"}
{"smiles": "CC1(C)OC2=C(C(=O)c3ccccc3C2=O)[C@H](NCc2ccccc2)[C@H]1O", "Potency": "active: 12.1 µM"}
{"smiles": "CC(C)(C)CN1CCCC12Cc1ccccc1CNC2=O", "note": "(stereo not given)", "Potency": "inconclusive: 56.2 µM [inhibitor, single point]"}
{"smiles": "O=S(=O)(Cc1ccccc1)N1CCC(c2nc(CCOc3ccc(F)cc3)no2)C1", "note": "(stereo not given)", "Potency": "inconclusive: 39.8 µM [inhibitor, single point]"}
{"smiles": "Cc1ccc(CN2CCCn3nc(C(=O)NCCc4ccccc4Cl)cc3C2=O)cc1", "Potency": "inconclusive: 2.82 µM [inhibitor, single point]"}
{"smiles": "CC(CCc1ccccc1)NC(=O)Cn1cccc1-c1nc(-c2ccc(F)cc2)no1", "note": "(stereo not given)", "Potency": "inconclusive: 14.1 µM [inhibitor, partial curve, poor fit]"}
{"smiles": "COc1cc(-c2nc(C3CC(=O)N(c4ccc(C)cc4)C3)no2)cc(OC)c1OC", "note": "(stereo not given)", "Potency": "inconclusive: 5.01 µM [inhibitor, single point]"}
{"smiles": "CN1CCC(N2CCN(S(=O)(=O)c3ccccc3F)CC2)C1=O", "note": "(stereo not given)", "Potency": "inconclusive: 3.16 µM [inhibitor, full curve]"}
{"smiles": "O=C(NCc1ccccc1Cl)c1nc2sccn2c1-c1ccncc1", "activity change, negative = inhibition": "inactive: -8.24%"}
{"smiles": "COC(=O)N1CCn2ncc(C(=O)NCc3ccc(Cl)nc3)c2C1", "Potency": "inconclusive: 2.51 µM [inhibitor, partial curve, poor fit]"}
{"smiles": "COc1cccc(CNC(=O)c2cn3cc(-c4cccc(C#N)c4)sc3n2)c1", "activity change, negative = inhibition": "inactive: -27.6%"}
{"smiles": "CC(=O)Nc1ccccc1-c1nccc2c(=O)cc(N(C)C3CCOCC3)oc12", "activity change, negative = inhibition": "inactive: 4.41% [at 87.6 µM]"}
{"smiles": "Cc1cccc(C(=O)Oc2c(Sc3ccccc3)c(C)nn2C(C)(C)C)c1", "Potency": "inconclusive: 39.8 µM [inhibitor, single point]"}
{"smiles": "Clc1ccc(Nc2c(-c3ccccc3Cl)nc3ccc(Cl)cn23)cc1", "Potency": "inconclusive: 31.6 µM [inhibitor, single point]"}
{"smiles": "CN(C)c1ccc(C(=O)N[C@H]2CO[C@H]3[C@@H]2OC[C@@H]3n2cc(CC3CCCCC3)nn2)cc1", "activity change, negative = inhibition": "inactive: 31.6%"}
{"smiles": "CCOC(=O)c1ccc(N2C(=O)c3n[nH]c(-c4ccco4)c3C2c2cccc(O)c2)cc1", "note": "(stereo not given)", "Potency": "inconclusive: 8.91 µM [inhibitor, partial curve, poor fit]"}
{"smiles": "Cc1cccc(CN2CCCC(O)(CN3CCC(C)CC3)C2=O)c1", "note": "(stereo not given)", "Potency": "inconclusive: 1.78 µM [inhibitor, full curve]"}
{"smiles": "CS(=O)(=O)N(C1CC1)C1CCOC2(CCN(C(=O)C3(c4ccccc4)CC3)CC2)C1", "note": "(stereo not given)", "activity change, negative = inhibition": "inactive: 27.5%"}
{"smiles": "O=[N+]([O-])c1cc(-c2nc(-c3ccccc3)no2)ccc1N1CCOCC1", "Potency": "inconclusive: 10 µM [inhibitor, partial curve, poor fit]"}
{"smiles": "O=C1[C@H]2CN(Cc3cccc(Cl)c3F)C[C@H]2C(=O)N1Cc1ccc2c(c1)OCO2", "Potency": "inconclusive: 25.1 µM [inhibitor, single point]"}
